The campaign covered roughly 48,000 compounds. About 550 (1.1%) were called active. Not shown: some 4% with an inconclusive outcome. Rule as the data show it: active = potency below about 15 µM; inconclusive = mostly about 16 µM to 33 µM; inactive = weaker than that. This is one part of the list.

From PubChem BioAssay AID360 (National Center for Advancing Translational Sciences (NCATS), 2006) come the findings set out here.
Potency is read from the fitted curve at half-maximal effect.

Chain of UniProt P04062 (P04062 whole entry, looked up): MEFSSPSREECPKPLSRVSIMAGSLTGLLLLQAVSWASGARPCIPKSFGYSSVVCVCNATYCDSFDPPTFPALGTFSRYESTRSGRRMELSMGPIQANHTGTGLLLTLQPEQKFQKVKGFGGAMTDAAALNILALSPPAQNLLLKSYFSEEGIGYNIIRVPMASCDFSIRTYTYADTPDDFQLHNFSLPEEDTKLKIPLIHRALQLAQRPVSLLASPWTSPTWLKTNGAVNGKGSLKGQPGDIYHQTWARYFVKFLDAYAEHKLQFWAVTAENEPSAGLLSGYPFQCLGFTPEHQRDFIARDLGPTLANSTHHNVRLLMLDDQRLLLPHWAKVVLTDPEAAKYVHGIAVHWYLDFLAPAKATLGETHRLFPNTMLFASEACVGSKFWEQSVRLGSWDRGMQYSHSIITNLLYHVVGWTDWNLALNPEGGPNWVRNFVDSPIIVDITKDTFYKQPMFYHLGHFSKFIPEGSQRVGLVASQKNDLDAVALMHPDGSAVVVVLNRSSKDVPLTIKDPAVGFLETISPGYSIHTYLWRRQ

This assay concerns the target Lysosomal acid glucosylceramidase (Homo sapiens) (UniProt P04062). The assay can be described thus: Glucocerebrosidase.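 Also: the screen sought inhibitors.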 The following applies: purified enzyme, resorufin glucoside fluorescence (screen aimed at inhibitors), 20 min. In short, it runs like this:
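Normal human glucocerebrosidase (0.2 nM final) was assayed with resorufin β-D-glucopyranoside (30 uM final) in 50mM citric acid/KH2PO4, 10mM sodium taurocholate, 0.01% tween-20, pH 5.9. Compounds were titrated; fluorescence (Ex 548, Em 600) read after 20 min at RT.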
For the compound `COc1ccc2[nH]c3c(=O)n(Cc4ccco4)cnc3c2c1`, the Potency is inactive: > 76.9 µM.
Next, `O=P(c1ccc2c(c1)OCCO2)(N1CCOCC1)N1CCOCC1`: inactive: > 76.9 µM; `Cc1cn(C(=O)CN2C(=O)c3ccccc3C2=O)c(C)n1`: inactive: > 76.9 µM.
Next, `O=C(Cn1cc(/C=N/O)c2ccccc21)N1CCOCC1`: inactive: > 76.9 µM; `COCCOC(=O)c1c(C)oc2ccc(NS(=O)(=O)c3ccccc3)cc12`: inactive: > 76.9 µM; `CCOC(=O)CCCOC(=O)c1ccc(S(=O)(=O)N(C)C)cc1`: inactive: > 76.9 µM.
In the case of `CCCC(=O)Nc1ccccc1NC(=O)CN(C)S(=O)(=O)c1ccc(C)cc1` it was inactive: > 76.9 µM; in that of `O=C(Cn1nc(-c2ccccc2)c2ccccc2c1=O)NCC1CCCO1` (stereo not given), inactive: > 76.9 µM; in that of `COc1cc2c(cc1OC)C(c1ccc3c(c1)OCO3)C1=C(CC(C)(C)CC1=O)N2` (stereo not given), inactive: > 76.9 µM.
As to `O=C(COc1ccc(Cl)cc1)Nc1ncccn1`, the Potency is inactive: > 76.9 µM.
For the compound `CCOC(=O)C1CCCN(C(=O)CN2C(=O)COc3ccc(C(C)(C)C)cc32)C1` (stereo not given), the Potency is inactive: > 76.9 µM.
Consider `O=C(Cc1ccccc1)Nc1c2c(nn1-c1cccc(Cl)c1)CS(=O)(=O)C2`, for which the Potency is inactive: > 76.9 µM.
In the case of `CC(=O)N1CCc2cc(S(=O)(=O)CCC(=O)N3CCN(C(=O)c4ccco4)CC3)ccc21` it was inactive: > 76.9 µM; in that of `CCC(C)NC(=O)C1c2cc(OC)c(OC)cc2C(=O)N(C)C1c1ccc(OC)cc1` (stereo not given), inactive: > 76.9 µM; in that of `CCn1nccc1C(=O)Nc1nccs1`, inactive: > 76.9 µM.
Take `CCOC(=O)N1CCN(C(=O)C(NS(=O)(=O)c2cccc3nsnc23)c2ccccc2)CC1` (stereo not given): the Potency is inactive: > 76.9 µM.
Regarding `Cn1c(SCC(=O)N2CCN(c3cccc(Cl)c3)CC2)nnc1-c1ccncc1`, the Potency is inactive: > 76.9 µM.
In the case of `Clc1ccc(Cc2noc(-c3cccs3)n2)cc1` it was inactive: > 76.9 µM; in that of `Cc1cc(C)cc(OCCCC(=O)O)c1`, inactive: > 76.9 µM; in that of `Cc1occc1-c1nnc(SCC(=O)Nc2nccs2)n1Cc1ccco1`, inactive: > 76.9 µM.
`COc1ccc(OC)c(S(=O)(=O)n2cccn2)c1`: the Potency is inactive: > 76.9 µM.
In the case of `COc1ccc(CN(Cc2ccccn2)C(=O)CN2C(=O)COc3ccccc32)cc1` it was inactive: > 76.9 µM.
For `COc1ccc(S(=O)(=O)N(C(C)=O)c2ccc3oc(=O)sc3c2)cc1`, the Potency is inactive: > 76.9 µM.
Next, `O=C(CN1C2CCC1CC(NC(=O)Nc1ccccc1)C2)NCc1ccco1` (stereo not given): inactive: > 76.9 µM; `CCN(CC)S(=O)(=O)c1cccc(C(=O)Nc2cc(C)nn2-c2nc(C)cc(C)n2)c1`: inactive: > 76.9 µM.
